Measurements published in patent US20150266962A1.

Molecular target: T1, human IL-13Rα2 on the surface of human tumour cell lines (human), Q14627
Assay: cell-based or functional assay

T1 sequence (Q14627 27-380): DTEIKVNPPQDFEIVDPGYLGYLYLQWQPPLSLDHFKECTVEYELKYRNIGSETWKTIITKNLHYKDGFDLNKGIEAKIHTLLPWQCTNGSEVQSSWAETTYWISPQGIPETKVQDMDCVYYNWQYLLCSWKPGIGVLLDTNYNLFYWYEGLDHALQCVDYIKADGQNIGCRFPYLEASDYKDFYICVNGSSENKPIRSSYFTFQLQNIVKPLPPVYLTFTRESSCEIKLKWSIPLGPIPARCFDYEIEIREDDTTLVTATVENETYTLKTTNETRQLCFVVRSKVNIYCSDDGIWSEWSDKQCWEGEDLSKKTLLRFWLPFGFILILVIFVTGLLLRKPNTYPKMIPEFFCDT

Binder | IC50 (ng Ab/mL), in vitro cytotoxicity, A375 [ng Ab/mL] | IC50 (ng Ab/mL), in vitro cytotoxicity, PC3MM2 [ng Ab/mL] | IC50 (ng/mL), in vitro cytotoxicity, A375 [ng/mL] | IC50 (ng/mL), in vitro cytotoxicity, PC3MM2 [ng/mL]
hu08-vc-0101 antibody-drug conjugate (antibody, here or on the partner: linker-payload vc-0101 on reduced cysteine residues (sites not given); linker-payload vc-0101 on reduced cysteine residues (sites not given); DAR 3.2) heavy: EVQLVESGGGLVQPGGSLRLSCAASGFTFSRNGMSWVRQAPGKGLEWVATVSSGGSYIYYADSVKGRFTISRDNAKNSLYLQMNSLRAEDTAVYYCARQGTTALATRFFDVWGQGTLVTVSS[sequence of human IgG1 constant region not given] light: DIQMTQSPSSLSASVGDRVTITCKASQDVGTAVAWYQQKPGKAPKLLIYSASYRSTGVPSRFSGSGSGTDFTLTISSLQPEDFATYYCQHHYSAPWTFGGGTKVEIKRTVAAPSVFIFPPSDEQLKSGTASVVCLLNNFYPREAKVQWKVDNALQSGNSQESVTEQDSKDSTYSLSSTLTLSKAAYEKHKVYACEVTHQGLSSPVTKSFNRGEC | 3.8 | 2.5 | 1.7 | 1.93
hu08-mc-0131 antibody-drug conjugate (antibody, human IgG1, kappa, here or on the partner: linker-payload mc-0131 on cysteine residues (sites not given); linker-payload mc-0131 on cysteine residues (sites not given); DAR 3.2) heavy: EVQLVESGGGLVQPGGSLRLSCAASGFTFSRNGMSWVRQAPGKGLEWVATVSSGGSYIYYADSVKGRFTISRDNAKNSLYLQMNSLRAEDTAVYYCARQGTTALATRFFDVWGQGTLVTVSS[sequence of human IgG1 constant region not given] light: DIQMTQSPSSLSASVGDRVTITCKASQDVGTAVAWYQQKPGKAPKLLIYSASYRSTGVPSRFSGSGSGTDFTLTISSLQPEDFATYYCQHHYSAPWTFGGGTKVEIKRTVAAPSVFIFPPSDEQLKSGTASVVCLLNNFYPREAKVQWKVDNALQSGNSQESVTEQDSKDSTYSLSSTLTLSKAAYEKHKVYACEVTHQGLSSPVTKSFNRGEC | 2.1 | 1.3 |  | 
hu08-MalPeg-6121 antibody-drug conjugate (antibody, human IgG1, kappa, here or on the partner: linker-payload MalPeg-6121 on cysteine residues (sites not given); linker-payload MalPeg-6121 on cysteine residues (sites not given); DAR 3.3) heavy: EVQLVESGGGLVQPGGSLRLSCAASGFTFSRNGMSWVRQAPGKGLEWVATVSSGGSYIYYADSVKGRFTISRDNAKNSLYLQMNSLRAEDTAVYYCARQGTTALATRFFDVWGQGTLVTVSS[sequence of human IgG1 constant region not given] light: DIQMTQSPSSLSASVGDRVTITCKASQDVGTAVAWYQQKPGKAPKLLIYSASYRSTGVPSRFSGSGSGTDFTLTISSLQPEDFATYYCQHHYSAPWTFGGGTKVEIKRTVAAPSVFIFPPSDEQLKSGTASVVCLLNNFYPREAKVQWKVDNALQSGNSQESVTEQDSKDSTYSLSSTLTLSKAAYEKHKVYACEVTHQGLSSPVTKSFNRGEC | 3.4 | 3.5 |  | 
hu08-MalPeg-0131 antibody-drug conjugate (antibody, human IgG1, kappa, here or on the partner: linker-payload MalPeg-0131 on cysteine residues (sites not given); linker-payload MalPeg-0131 on cysteine residues (sites not given); DAR 2.9) heavy: EVQLVESGGGLVQPGGSLRLSCAASGFTFSRNGMSWVRQAPGKGLEWVATVSSGGSYIYYADSVKGRFTISRDNAKNSLYLQMNSLRAEDTAVYYCARQGTTALATRFFDVWGQGTLVTVSS[sequence of human IgG1 constant region not given] light: DIQMTQSPSSLSASVGDRVTITCKASQDVGTAVAWYQQKPGKAPKLLIYSASYRSTGVPSRFSGSGSGTDFTLTISSLQPEDFATYYCQHHYSAPWTFGGGTKVEIKRTVAAPSVFIFPPSDEQLKSGTASVVCLLNNFYPREAKVQWKVDNALQSGNSQESVTEQDSKDSTYSLSSTLTLSKAAYEKHKVYACEVTHQGLSSPVTKSFNRGEC | 4.9 | 2.9 |  | 
hu08-mc-6121 antibody-drug conjugate (antibody, human IgG1, kappa, here or on the partner: linker-payload mc-6121 on cysteine residues (sites not given); linker-payload mc-6121 on cysteine residues (sites not given); DAR 3.3) heavy: EVQLVESGGGLVQPGGSLRLSCAASGFTFSRNGMSWVRQAPGKGLEWVATVSSGGSYIYYADSVKGRFTISRDNAKNSLYLQMNSLRAEDTAVYYCARQGTTALATRFFDVWGQGTLVTVSS[sequence of human IgG1 constant region not given] light: DIQMTQSPSSLSASVGDRVTITCKASQDVGTAVAWYQQKPGKAPKLLIYSASYRSTGVPSRFSGSGSGTDFTLTISSLQPEDFATYYCQHHYSAPWTFGGGTKVEIKRTVAAPSVFIFPPSDEQLKSGTASVVCLLNNFYPREAKVQWKVDNALQSGNSQESVTEQDSKDSTYSLSSTLTLSKAAYEKHKVYACEVTHQGLSSPVTKSFNRGEC | 2.4 | 1.1 |  | 
hu08-mc-3906 antibody-drug conjugate (antibody, human IgG1, kappa, here or on the partner: linker-payload mc-3906 on cysteine residues (sites not given); linker-payload mc-3906 on cysteine residues (sites not given); DAR 3) heavy: EVQLVESGGGLVQPGGSLRLSCAASGFTFSRNGMSWVRQAPGKGLEWVATVSSGGSYIYYADSVKGRFTISRDNAKNSLYLQMNSLRAEDTAVYYCARQGTTALATRFFDVWGQGTLVTVSS[sequence of human IgG1 constant region not given] light: DIQMTQSPSSLSASVGDRVTITCKASQDVGTAVAWYQQKPGKAPKLLIYSASYRSTGVPSRFSGSGSGTDFTLTISSLQPEDFATYYCQHHYSAPWTFGGGTKVEIKRTVAAPSVFIFPPSDEQLKSGTASVVCLLNNFYPREAKVQWKVDNALQSGNSQESVTEQDSKDSTYSLSSTLTLSKAAYEKHKVYACEVTHQGLSSPVTKSFNRGEC | 2.9 | 1.5 |  | 
hu08-vc-6780 antibody-drug conjugate (antibody, human IgG1, kappa, here or on the partner: linker-payload vc-6780 on cysteine residues (sites not given); linker-payload vc-6780 on cysteine residues (sites not given); DAR 4) heavy: EVQLVESGGGLVQPGGSLRLSCAASGFTFSRNGMSWVRQAPGKGLEWVATVSSGGSYIYYADSVKGRFTISRDNAKNSLYLQMNSLRAEDTAVYYCARQGTTALATRFFDVWGQGTLVTVSS[sequence of human IgG1 constant region not given] light: DIQMTQSPSSLSASVGDRVTITCKASQDVGTAVAWYQQKPGKAPKLLIYSASYRSTGVPSRFSGSGSGTDFTLTISSLQPEDFATYYCQHHYSAPWTFGGGTKVEIKRTVAAPSVFIFPPSDEQLKSGTASVVCLLNNFYPREAKVQWKVDNALQSGNSQESVTEQDSKDSTYSLSSTLTLSKAAYEKHKVYACEVTHQGLSSPVTKSFNRGEC | 2.2 | 1.2 |  | 
hu08v1.0/1.0 Q347C-vc-0101 ADC (antibody, human IgG1, kappa, here or on the partner: vc-0101 on engineered Cys 347 (EU); DAR 2.1) heavy: EVQLVESGGGLVQPGGSLRLSCAASGFTFSRNGMSWVRQAPGKGLEWVATVSSGGSYIYYADSVKGRFTISRDNAKNSLYLQMNSLRAEDTAVYYCARQGTTALATRFFDVWGQGTLVTVSSASTKGPSVFPLAPSSKSTSGGTAALGCLVKDYFPEPVTVSWNSGALTSGVHTFPAVLQSSGLYSLSSVVTVPSSSLGTQTYICNVNHKPSNTKVDKKV[sequence of human IgG1 Fc with Q347C (EU numbers) not given] light: DIQMTQSPSSLSASVGDRVTITCKASQDVGTAVAWYQQKPGKAPKLLIYSASYRSTGVPSRFSGSGSGTDFTLTISSLQPEDFATYYCQHHYSAPWTFGGGTKVEIKRTVAAPSVFIFPPSDEQLKSGTASVVCLLNNFYPREAKVQWKVDNALQSGNSQESVTEQDSKDSTYSLSSTLTLSKAAYEKHKVYACEVTHQGLSSPVTKSFNRGEC |  |  | 1.65 | 2.66
hu08v1.0/1.0 L443C-vc-0101 ADC (antibody, here or on the partner: vc-0101 on engineered Cys 443 (EU); DAR 2.1) heavy: EVQLVESGGGLVQPGGSLRLSCAASGFTFSRNGMSWVRQAPGKGLEWVATVSSGGSYIYYADSVKGRFTISRDNAKNSLYLQMNSLRAEDTAVYYCARQGTTALATRFFDVWGQGTLVTVSSASTKGPSVFPLAPSSKSTSGGTAALGCLVKDYFPEPVTVSWNSGALTSGVHTFPAVLQSSGLYSLSSVVTVPSSSLGTQTYICNVNHKPSNTKVDKKV[sequence of human IgG1 Fc with L443C (EU numbers) not given] light: DIQMTQSPSSLSASVGDRVTITCKASQDVGTAVAWYQQKPGKAPKLLIYSASYRSTGVPSRFSGSGSGTDFTLTISSLQPEDFATYYCQHHYSAPWTFGGGTKVEIKRTVAAPSVFIFPPSDEQLKSGTASVVCLLNNFYPREAKVQWKVDNALQSGNSQESVTEQDSKDSTYSLSSTLTLSKAAYEKHKVYACEVTHQGLSSPVTKSFNRGEC |  |  | 1.41 | 2.4
hu08v1.0/1.0 K392C/L443C-vc-0101 ADC (antibody, here or on the partner: vc-0101 on engineered Cys 392 and Cys 443 (EU); DAR 3.7) heavy: EVQLVESGGGLVQPGGSLRLSCAASGFTFSRNGMSWVRQAPGKGLEWVATVSSGGSYIYYADSVKGRFTISRDNAKNSLYLQMNSLRAEDTAVYYCARQGTTALATRFFDVWGQGTLVTVSSASTKGPSVFPLAPSSKSTSGGTAALGCLVKDYFPEPVTVSWNSGALTSGVHTFPAVLQSSGLYSLSSVVTVPSSSLGTQTYICNVNHKPSNTKVDKKV[sequence of human IgG1 Fc with K392C L443C (EU numbers) not given] light: DIQMTQSPSSLSASVGDRVTITCKASQDVGTAVAWYQQKPGKAPKLLIYSASYRSTGVPSRFSGSGSGTDFTLTISSLQPEDFATYYCQHHYSAPWTFGGGTKVEIKRTVAAPSVFIFPPSDEQLKSGTASVVCLLNNFYPREAKVQWKVDNALQSGNSQESVTEQDSKDSTYSLSSTLTLSKAAYEKHKVYACEVTHQGLSSPVTKSFNRGEC |  |  | 0.63 | 1.41

Molecular target: T1, human IL-13Rα2 on the surface of human …
Assay: cell-based or functional assay
Remark: another data set of the same source

Binder | IC50 (ng Ab/mL), in vitro cytotoxicity, A375 [ng Ab/mL] | IC50 (ng Ab/mL), in vitro cytotoxicity, PC3MM2 [ng Ab/mL]
hu08v1.0/1.0 L443C-mc-3377 ADC (antibody, here or on the partner: mc-3377 on engineered Cys 443 (EU); DAR 2.3) heavy: EVQLVESGGGLVQPGGSLRLSCAASGFTFSRNGMSWVRQAPGKGLEWVATVSSGGSYIYYADSVKGRFTISRDNAKNSLYLQMNSLRAEDTAVYYCARQGTTALATRFFDVWGQGTLVTVSSASTKGPSVFPLAPSSKSTSGGTAALGCLVKDYFPEPVTVSWNSGALTSGVHTFPAVLQSSGLYSLSSVVTVPSSSLGTQTYICNVNHKPSNTKVDKKV[sequence of human IgG1 Fc with L443C (EU numbers) not given] light: DIQMTQSPSSLSASVGDRVTITCKASQDVGTAVAWYQQKPGKAPKLLIYSASYRSTGVPSRFSGSGSGTDFTLTISSLQPEDFATYYCQHHYSAPWTFGGGTKVEIKRTVAAPSVFIFPPSDEQLKSGTASVVCLLNNFYPREAKVQWKVDNALQSGNSQESVTEQDSKDSTYSLSSTLTLSKAAYEKHKVYACEVTHQGLSSPVTKSFNRGEC | 3.3 | 3.9
hu08v1.0/1.0 K392C + L443C-mc-3377 ADC (antibody, here or on the partner: mc-3377 on engineered Cys 392 and Cys 443 (EU); DAR 3.5) heavy: EVQLVESGGGLVQPGGSLRLSCAASGFTFSRNGMSWVRQAPGKGLEWVATVSSGGSYIYYADSVKGRFTISRDNAKNSLYLQMNSLRAEDTAVYYCARQGTTALATRFFDVWGQGTLVTVSSASTKGPSVFPLAPSSKSTSGGTAALGCLVKDYFPEPVTVSWNSGALTSGVHTFPAVLQSSGLYSLSSVVTVPSSSLGTQTYICNVNHKPSNTKVDKKV[sequence of human IgG1 Fc with K392C L443C (EU numbers) not given] light: DIQMTQSPSSLSASVGDRVTITCKASQDVGTAVAWYQQKPGKAPKLLIYSASYRSTGVPSRFSGSGSGTDFTLTISSLQPEDFATYYCQHHYSAPWTFGGGTKVEIKRTVAAPSVFIFPPSDEQLKSGTASVVCLLNNFYPREAKVQWKVDNALQSGNSQESVTEQDSKDSTYSLSSTLTLSKAAYEKHKVYACEVTHQGLSSPVTKSFNRGEC | 1.3 | 2.2
